Read counts are not given, so values of variants with three or more changes are uncertain.

First the molecules themselves.
B1: CPEB3 Ribozyme (parent)
chain: UAACAGGGGGCCACAGCAGAAGCGUUCACGUCGCAGCCCCUGUCAGAUUCUGGUGAAUCUGCGAAUUCUGCUGUAUAUCUC

The variants in the series derive from B1. Nature of the series: self-cleavage, relative activity (ratio to wild type); higher = more cleavage; in vitro, sequencing. In a few lines:
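Barcoded CPEB3 ribozyme mutants, produced by rounds of error-prone PCR, self-cleaved while being transcribed with T7 RNA polymerase for 5 hours at 37°C and during a subsequent 15 min DNase I step before EDTA was added. Sequencing of template-switched cDNA on Illumina gave cleaved and total reads, and DNA sequencing assigned barcodes to variants. Each variant's relative activity is its cleaved/total read fraction divided by the unmutated ribozyme's fraction, averaged across three batches. A variant needed a minimum of 5 reads.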
Consider A3G A56G U76A, for which the self-cleavage was 0.87.
In the case of A3G A18G U69C, the self-cleavage is 1.08.
For the variant A3G A21G U26C U72C, the self-cleavage came to 0.79.
As to A3G A20U U48C G53C A57G, the self-cleavage was 0.34.
Regarding A3G C4U A56U U66A U72A, the self-cleavage is 0.52.
As for A3G A15U U41A U51C U69A, the self-cleavage came out at 0.31.
Consider A3G A47U A56G U72C, for which the self-cleavage turned out to be 0.46.
Consider A3G A21G U26C A57G A75G, for which the self-cleavage stood at 0.34.
For A3G C11A A20G U25A U48C, the self-cleavage was 0.11.
Regarding A3G A20G U25C U43C U67C, the self-cleavage came out at 0.23.
The figure for A3G A45C U72C is 0.65; for A3G A28U U48C U51C U60C A77G it is 0.14.
On to A3G A15G A28G G33U, for which the self-cleavage came out at 0.46.
On to A3G A35U U41C U43C U49C, for which the self-cleavage is 0.29.
A3G C12U G36C U41C U58A A77G: the self-cleavage was found to be 0.06.
For A3G A18U A21G U31C, the self-cleavage was 0.1.
Consider A3G A13U C23A U25C A56U U60C G73A, for which the self-cleavage turned out to be 0.04.
Take A3G A15G G52A: the self-cleavage came out at 0.44.
As for A3G C12A U25C U49C U54C A57U, the self-cleavage is 0.06.
Under A3G A28G A45G A57G stands 0.4.
For the variant A3G C11U U26A U49C U72C U80A, the self-cleavage was 0.06.
Consider A3G A18G A35U U49C U69G, for which the self-cleavage came to 0.1.
Turning to A3G C11U A15G U51C C62U A64U, the self-cleavage turned out to be 0.14.
As for A3G A35G U76C, the self-cleavage is 1.16.
In the case of A3G A35G U76A, the self-cleavage came to 1.29.
For A3G A45G U51A, the self-cleavage was 0.57.
Turning to A3G A45C A56G A75G U80C, the self-cleavage came to 0.24.
The figure for A3G C4U A21G U49C is 0.61.
In the case of A3G A35G U41A A47U A57G, the self-cleavage amounted to 0.42.
As for A3G C11U G33A A65G U80C, the self-cleavage was determined as 0.09.
On to A3G A21G A28G A45U U51A, for which the self-cleavage came out at 0.4.
As for A3G A18G A28G A35G G52U, the self-cleavage amounted to 0.67.
Regarding A3G A35G G36A A64U U67C, the self-cleavage amounted to 0.22.
Regarding A3G A20G A57G U60C U78C, the self-cleavage amounted to 0.34.
The figure for A3G A45U A56C is 0.25; for A3G A20U U49C U72C U76C it is 0.1; for A3G A15U A35G U41C A45G U78C it is 1.16.
Consider A3G A57G U76C, for which the self-cleavage was 0.96.
For the variant A3G A21U U41C, the self-cleavage worked out at 0.43.
As for A3G A21G A28G G42A G55A A56G, the self-cleavage was determined as 0.08.
A3G A20G C29U A75U: the self-cleavage was found to be 0.34.
Under A3G A15G U25C U49C stands 0.44.
For the variant A3G A15G U67A U74C, the self-cleavage came out at 0.37.
As for A3G A20G U58C G73A, the self-cleavage amounted to 0.7.
As for A3G A47G A77G, the self-cleavage worked out at 0.84.
For A3G A35U U54C U69C, the self-cleavage is 0.22.
Regarding A3G A18G U54C U69C, the self-cleavage amounted to 1.16.
Take A3G A28G A57G A65G: the self-cleavage came to 0.54.
As for A3G A28U G63C U72A, the self-cleavage amounted to 0.55.
With A3G A28G U49C U80C, the self-cleavage was determined as 0.37.
Consider A3G A20G C38G U54G, for which the self-cleavage is 0.52.
For the variant A3G A15G U25C A45G U54A, the self-cleavage amounted to 0.33.
For A3G A21G U51C U54C U60A, the self-cleavage was determined as 0.37.
A3G C4U U26A A56G C62U: the self-cleavage stood at 0.27.
In the case of A3G A28G G33A A35G U78C, the self-cleavage was 0.08.
On to A3G A64G U74A, for which the self-cleavage came out at 1.15.
On to A3G A18U A57G U69A G70A U80A, for which the self-cleavage stood at 0.37.
Regarding A3G A13U A57C U60A U72G, the self-cleavage turned out to be 0.17.
With A3G A57U U69C U80C, the self-cleavage turned out to be 0.34.
For A3G A35U A56G, the self-cleavage was found to be 0.39.
With A3G A18G U31C U78C, the self-cleavage was found to be 0.37.
Turning to A3G A45G U58G U78G, the self-cleavage turned out to be 0.31.
With A3G A45G A57U U69C U72A U80C, the self-cleavage is 0.23.
Under A3G A21U U31A U48C U67C stands 0.15.
With A3G A18G A65G, the self-cleavage turned out to be 0.31.
Consider A3G A18G A35U A45G A47U U76A, for which the self-cleavage was 0.07.
In the case of A3G A18U A21G U54C A64U, the self-cleavage worked out at 0.08.
A3G A15G U26A A45C A56G A57G U72C: the self-cleavage stood at 0.58.
For the variant A3G A18G G33A U48C U66C, the self-cleavage amounted to 0.07.
Under A3G A35U U48C G52A U58C U67C C68G stands 0.25; under A3G A15G C38U A56G U66C, 0.34; under A3G C4A A15U A20U U69C, 0.16.
The figure for A3G A20G C40A is 0.21; for A3G A28U A35G U60C U78C it is 0.59; for A3G A20G A57G it is 0.87.
As to A3G A28G U76C, the self-cleavage was 0.96.
Turning to A3G A15G A21G C29A A57G, the self-cleavage is 0.13.
For the variant A3G A20G U26C C32G G52A U58C, the self-cleavage worked out at 0.37.
Consider A3G A35G U43C U48C U76G, for which the self-cleavage amounted to 0.57.
A3G A13U A45G A47U U60C: the self-cleavage amounted to 1.12.
Consider A3G A21G U49A U69C, for which the self-cleavage worked out at 0.23.
As for A3G A45G U51A A56G, the self-cleavage stood at 0.38.
Turning to A3G A35G U74C U76C, the self-cleavage is 1.2.
Under A3G A21G U60C U67C stands 0.09; under A3G A28G U48C U51A A57G U74C, 0.9; under A3G A21G U58C A65G U69A U80C, 0.09.
With A3G A13U U25A A47G, the self-cleavage amounted to 0.13.
In the case of A3G A20U A47C A56G A64C U66G, the self-cleavage came out at 0.15.
A3G A28U A64U: the self-cleavage was 0.17.
As for A3G A35G A56G, the self-cleavage came out at 1.2.
As to A3G A15G G30C A57G U74A U80C, the self-cleavage came to 0.65.
As for A3G C11G A47G U78A, the self-cleavage amounted to 0.27.
As for A3G A20G U26C U51C, the self-cleavage turned out to be 0.64.
In the case of A3G A20G A21G U41A U43G U66G A75G, the self-cleavage stood at 0.08.
For A3G C12U A13U A35G U60C U69C, the self-cleavage came out at 0.37.
A3G C4G C17G A28C: the self-cleavage was determined as 0.48.
For A3G A45U U49C, the self-cleavage is 0.1.
On to A3G C11A U26A A65U, for which the self-cleavage is 0.05.
In the case of A3G C4U U51A, the self-cleavage came out at 1.17.
As to A3G A18G A35G U58C U69C, the self-cleavage is 1.22.
For A3G A15G U26A A45C A65G U72C, the self-cleavage is 0.49.
As to A3G A21G A77U, the self-cleavage amounted to 0.81.
Consider A3G A65U U72G, for which the self-cleavage was found to be 0.25.
In the case of A3G A15U C38U A47U U58C A64G A77U, the self-cleavage was found to be 0.04.
A3G A35U U41A: the self-cleavage worked out at 0.29.
In the case of A3G A21G C38U U51C U58C U72C U80C, the self-cleavage stood at 0.09.
With A3G A20G A28U U80C, the self-cleavage was determined as 0.85.
With A3G A18G U31A A65G U67A U69C, the self-cleavage turned out to be 0.3.
The figure for A3G A35G A47U U48C U69C is 0.28.
On to A3G A18U A28C A57G A64G, for which the self-cleavage is 0.11.
The figure for A3G A28U A35G A64C U72A U76C is 0.24; for A3G A15G A20G C29U it is 0.43.
Consider A3G A47G U54A A56C U60C U80A, for which the self-cleavage is 0.32.
With A3G A18G A56G, the self-cleavage is 0.52.
Under A3G A18G U26C U41A U66C U74A stands 0.08; under A3G A18U C29U A47G A65U U67C, 0.38.
In the case of A3G A28C U54A, the self-cleavage came to 0.63.
For A3G A15G G61A, the self-cleavage was determined as 0.51.
Under A3G A15G U41G A77U stands 0.46; under A3G A15G A65U, 0.33; under A3G A64G A77U, 0.74.
In the case of A3G A28C C40A U48C U51A, the self-cleavage came to 0.09.
Take A3G A15G A20G U26A: the self-cleavage is 0.42.
In the case of A3G A15G U49C U54C A57G U67C U78C, the self-cleavage was 0.
Under A3G A21G C34U U49C A64G stands 0.08; under A3G A35U C62G U72A, 0.
For the variant A3G A18U C39A A75C, the self-cleavage came to 0.12.
In the case of A3G A18U A35G, the self-cleavage turned out to be 0.83.
Regarding A3G A13U U43C, the self-cleavage was determined as 0.44.
For A3G A13U U43A, the self-cleavage worked out at 1.18.
Consider A3G A18G A56G U78C U80A, for which the self-cleavage stood at 0.65.
The figure for A3G A18G C40G A47U C59A U69C is 0.26.
With A3G A15G U69A, the self-cleavage is 0.26.
Consider A3G A28U A56U U58C, for which the self-cleavage came out at 0.22.
For A3G A56G A65G, the self-cleavage came to 0.27.
Take A3G A21G U31A A64G: the self-cleavage was determined as 0.22.
For the variant A3G A35G C38U A45G, the self-cleavage was found to be 1.27.
In the case of A3G A18U A20U A35U U41A U54A A65G, the self-cleavage is 0.08.
On to A3G A15G U26C U80C, for which the self-cleavage came out at 0.48.
On to A3G A20U U51C G52A, for which the self-cleavage was determined as 0.64.
On to A3G A35U U43C A45G A57C U60G, for which the self-cleavage was 0.08.
Take A3G A28G U60C U69A: the self-cleavage stood at 0.15.
With A3G A21G U26G U67C, the self-cleavage was determined as 0.14.
For the variant A3G A18U U41C A45U U80C, the self-cleavage amounted to 0.47.
A3G A20G U41G: the self-cleavage stood at 0.44.
Under A3G A47G A65G U66C stands 0.28; under A3G A35G A56U G63U, 1.16; under A3G A20U A35U U58C, 0.04.
With A3G A47G U51C G52A U54A, the self-cleavage came to 0.73.
As to A3G A15C U49C, the self-cleavage was determined as 0.59.
Take A3G C4U C37U C40A U51C U67C: the self-cleavage is 0.01.
In the case of A3G A15U U49A A75C, the self-cleavage was 0.56.
Take A3G A21G A35G U48C U69C: the self-cleavage came out at 0.36.
For the variant A3G A18G G33A U41C A45U G52C, the self-cleavage amounted to 0.07.
Turning to A3G C11G U25C U58C U69A, the self-cleavage was determined as 0.07.
Under A3G A21G U26A C38A U58C stands 0.38.
With A3G C11G A47G U48C U54C, the self-cleavage worked out at 0.09.
The figure for A3G A15G A45G G61A is 0.5; for A3G A18G A47U A65G U69A U76A it is 0.13; for A3G A35G A47G U78C it is 1.18.
Turning to A3G A13U G19A A47U U49C, the self-cleavage worked out at 0.38.
For the variant A3G A15U U60A, the self-cleavage turned out to be 0.15.
Consider A3G A15U A77G, for which the self-cleavage came to 0.67.
Consider A3G A35G A57U, for which the self-cleavage was 1.24.
With A3G A18G A35G U49C, the self-cleavage turned out to be 0.55.
On to A3G C4A U69C U78A, for which the self-cleavage turned out to be 0.98.
As for A3G A20G U51C U54C U80C, the self-cleavage is 0.95.

For the origin of these results see the RNAGym collection of RNA variant scans (doi:10.1093/nar/gkz1192).
